Laboratory results from PMC9911399, “Two distinct binding modes provide the RNA-binding protein RbFox with extraordinary sequence specificity”.
Numbering of substitutions follows the chain as printed; changes in the protein carry UniProt numbers. The list shows a part of the results.

T1: RBFOX1 RRM (Homo sapiens, UniProt Q9NWB1 109-208)
T1 sequence: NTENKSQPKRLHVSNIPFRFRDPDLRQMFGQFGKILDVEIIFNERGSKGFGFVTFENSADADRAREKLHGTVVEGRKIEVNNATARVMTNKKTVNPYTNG

B1: UUUUGGA (DNA:RNA)
RNA: GGGAGACCGGAAUUCAGAUUGUCCUUUUGGAUUAAAUCCCGUCGUAGCCACCA
DNA 1: CAATCTGAATTCCGGTCTCCC
DNA 2: TGGTGGCTACGACGGGATT
B2: UAUCAGC (DNA:RNA)
RNA: B1 RNA with U26A, U28C, G29A, A31C
DNA 1: CAATCTGAATTCCGGTCTCCC
DNA 2: TGGTGGCTACGACGGGATT
B3: AGUUUUC (DNA:RNA)
RNA: B1 RNA with U25A, U26G, G29U, G30U, A31C
DNA 1: CAATCTGAATTCCGGTCTCCC
DNA 2: TGGTGGCTACGACGGGATT
B4: CCGUCGA (DNA:RNA)
RNA: B1 RNA with U25C, U26C, U27G, G29C
DNA 1: CAATCTGAATTCCGGTCTCCC
DNA 2: TGGTGGCTACGACGGGATT
B5: UUGAUUC (DNA:RNA)
RNA: B1 RNA with U27G, U28A, G29U, G30U, A31C
DNA 1: CAATCTGAATTCCGGTCTCCC
DNA 2: TGGTGGCTACGACGGGATT
B6: GAGUACA (DNA:RNA)
RNA: B1 RNA with U25G, U26A, U27G, G29A, G30C
DNA 1: CAATCTGAATTCCGGTCTCCC
DNA 2: TGGTGGCTACGACGGGATT
B7: CGAAGCU (DNA:RNA)
RNA: B1 RNA with U25C, U26G, U27A, U28A, G30C, A31U
DNA 1: CAATCTGAATTCCGGTCTCCC
DNA 2: TGGTGGCTACGACGGGATT
B8: UGCUUUA (DNA:RNA)
RNA: B1 RNA with U26G, U27C, G29U, G30U
DNA 1: CAATCTGAATTCCGGTCTCCC
DNA 2: TGGTGGCTACGACGGGATT
B9: AUUGGUG (DNA:RNA)
RNA: B1 RNA with U25A, U28G, G30U, A31G
DNA 1: CAATCTGAATTCCGGTCTCCC
DNA 2: TGGTGGCTACGACGGGATT
B10: CUAACAA (DNA:RNA)
RNA: B1 RNA with U25C, U27A, U28A, G29C, G30A
DNA 1: CAATCTGAATTCCGGTCTCCC
DNA 2: TGGTGGCTACGACGGGATT
B11: GACGAGG (DNA:RNA)
RNA: B1 RNA with U25G, U26A, U27C, U28G, G29A, A31G
DNA 1: CAATCTGAATTCCGGTCTCCC
DNA 2: TGGTGGCTACGACGGGATT
B12: AAUCGUA (DNA:RNA)
RNA: B1 RNA with U25A, U26A, U28C, G30U
DNA 1: CAATCTGAATTCCGGTCTCCC
DNA 2: TGGTGGCTACGACGGGATT
B13: GUAUACA (DNA:RNA)
RNA: B1 RNA with U25G, U27A, G29A, G30C
DNA 1: CAATCTGAATTCCGGTCTCCC
DNA 2: TGGTGGCTACGACGGGATT
B14: GUUGGUA (DNA:RNA)
RNA: B1 RNA with U25G, U28G, G30U
DNA 1: CAATCTGAATTCCGGTCTCCC
DNA 2: TGGTGGCTACGACGGGATT
B15: CCAUACA (DNA:RNA)
RNA: B1 RNA with U25C, U26C, U27A, G29A, G30C
DNA 1: CAATCTGAATTCCGGTCTCCC
DNA 2: TGGTGGCTACGACGGGATT
B16: GGAAUGA (DNA:RNA)
RNA: B1 RNA with U25G, U26G, U27A, U28A, G29U
DNA 1: CAATCTGAATTCCGGTCTCCC
DNA 2: TGGTGGCTACGACGGGATT
B17: UAGGUCC (DNA:RNA)
RNA: B1 RNA with U26A, U27G, U28G, G29U, G30C, A31C
DNA 1: CAATCTGAATTCCGGTCTCCC
DNA 2: TGGTGGCTACGACGGGATT
B18: AAACCAC (DNA:RNA)
RNA: GGGAGACCGGAAUUCAGAUUGUCCAAACCACUUAAAUCCCGUCGUAGCCACCA
DNA 1: CAATCTGAATTCCGGTCTCCC
DNA 2: TGGTGGCTACGACGGGATT
B19: CCAAAAU (DNA:RNA)
RNA: B18 RNA with A25C, A26C, C28A, C29A, C31U
DNA 1: CAATCTGAATTCCGGTCTCCC
DNA 2: TGGTGGCTACGACGGGATT
B20: GCUCGGU (DNA:RNA)
RNA: B1 RNA with U25G, U26C, U28C, A31U
DNA 1: CAATCTGAATTCCGGTCTCCC
DNA 2: TGGTGGCTACGACGGGATT
B21: UCAUCGC (DNA:RNA)
RNA: B18 RNA with A25U, A26C, C28U, A30G
DNA 1: CAATCTGAATTCCGGTCTCCC
DNA 2: TGGTGGCTACGACGGGATT
B22: GUCUAGC (DNA:RNA)
RNA: B1 RNA with U25G, U27C, G29A, A31C
DNA 1: CAATCTGAATTCCGGTCTCCC
DNA 2: TGGTGGCTACGACGGGATT
B23: CCAUAGC (DNA:RNA)
RNA: B18 RNA with A25C, A26C, C28U, C29A, A30G
DNA 1: CAATCTGAATTCCGGTCTCCC
DNA 2: TGGTGGCTACGACGGGATT
B24: UCGGUGC (DNA:RNA)
RNA: B1 RNA with U26C, U27G, U28G, G29U, A31C
DNA 1: CAATCTGAATTCCGGTCTCCC
DNA 2: TGGTGGCTACGACGGGATT
B25: CUAUGGG (DNA:RNA)
RNA: B1 RNA with U25C, U27A, A31G
DNA 1: CAATCTGAATTCCGGTCTCCC
DNA 2: TGGTGGCTACGACGGGATT
B26: UACCUGG (DNA:RNA)
RNA: B18 RNA with A25U, A27C, C29U, A30G, C31G
DNA 1: CAATCTGAATTCCGGTCTCCC
DNA 2: TGGTGGCTACGACGGGATT
B27: UUGCAGA (DNA:RNA)
RNA: B1 RNA with U27G, U28C, G29A
DNA 1: CAATCTGAATTCCGGTCTCCC
DNA 2: TGGTGGCTACGACGGGATT
B28: GAGGCCA (DNA:RNA)
RNA: B18 RNA with A25G, A27G, C28G, A30C, C31A
DNA 1: CAATCTGAATTCCGGTCTCCC
DNA 2: TGGTGGCTACGACGGGATT
B29: UCACAGA (DNA:RNA)
RNA: B1 RNA with U26C, U27A, U28C, G29A
DNA 1: CAATCTGAATTCCGGTCTCCC
DNA 2: TGGTGGCTACGACGGGATT
B30: CUAGCAA (DNA:RNA)
RNA: B18 RNA with A25C, A26U, C28G, C31A
DNA 1: CAATCTGAATTCCGGTCTCCC
DNA 2: TGGTGGCTACGACGGGATT
B31: AUAGCGC (DNA:RNA)
RNA: B18 RNA with A26U, C28G, A30G
DNA 1: CAATCTGAATTCCGGTCTCCC
DNA 2: TGGTGGCTACGACGGGATT

Each binder was assayed against T1, RBFOX1 RRM (assay: EMSA; HiTS-Eq, 1 nM pool, 10 min; buffer printed only for the single-RNA assays: 10 mM Tris pH 7.5, 150 mM NaCl, 3.4 mM EDTA, 0.001% NP-40, 30 C). Conditions: tags: His6 N-terminal (pET28a); label: 5' 32P.
Outline: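 A pool of RNA with 7 randomized nucleotides, 5′-radiolabelled and with DNA-annealed flanks, was equilibrated at 1 nM for 10 min in 50 µL with purified RbFox RRM, wild type or mutant, across increasing protein concentrations. Free RNA was separated by 8% native PAGE, excised, reverse-transcribed, barcoded by PCR and sequenced. Relative association constants were obtained from read-count changes of each RNA species versus the control reaction and normalised to the cognate motif.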
In the case of B1, the binding signal is reported as 0.00404 KA relative to UGCAUGU.
In the case of B2, the binding signal is reported as 0.0125 KA relative to UGCAUGU.
For B3, the binding signal was 0.0117 KA relative to UGCAUGU.
With B4 the binding signal was 0.00849 KA relative to UGCAUGU.
In the case of B5, the binding signal is reported as 0.0169 KA relative to UGCAUGU.
In the case of B6, the binding signal is reported as 0.006 KA relative to UGCAUGU.
With B7 the binding signal was 0.00649 KA relative to UGCAUGU.
B8 was tested, and the binding signal was 0.0103 KA relative to UGCAUGU.
With B9 the binding signal was 0.0275 KA relative to UGCAUGU.
In the case of B10, the binding signal is reported as 0.0014 KA relative to UGCAUGU.
B11 was tested, and the binding signal was 0.0171 KA relative to UGCAUGU.
B12 was tested, and the binding signal was 0.00315 KA relative to UGCAUGU.
B13 was tested, and the binding signal was 0.00201 KA relative to UGCAUGU.
B14 was tested, and the binding signal was 0.0216 KA relative to UGCAUGU.
For B15, the binding signal was 0.00184 KA relative to UGCAUGU.
B16 was tested, and the binding signal was 0.0487 KA relative to UGCAUGU.
B17 was tested, and the binding signal was 0.0159 KA relative to UGCAUGU.
In the case of B18, the binding signal is reported as 0.00213 KA relative to UGCAUGU.
B19 was tested, and the binding signal was 0.00117 KA relative to UGCAUGU.
With B20 the binding signal was 0.0213 KA relative to UGCAUGU.
For B21, the binding signal was 0.00956 KA relative to UGCAUGU.
B22 was tested, and the binding signal was 0.0126 KA relative to UGCAUGU.
For B23, the binding signal was 0.0011 KA relative to UGCAUGU.
B24 was tested, and the binding signal was 0.0236 KA relative to UGCAUGU.
With B25 the binding signal was 0.00291 KA relative to UGCAUGU.
B26 was tested, and the binding signal was 0.011 KA relative to UGCAUGU.
With B27 the binding signal was 0.018 KA relative to UGCAUGU.
In the case of B28, the binding signal is reported as 0.0131 KA relative to UGCAUGU.
In the case of B29, the binding signal is reported as 0.00686 KA relative to UGCAUGU.
B30 was tested, and the binding signal was 0.00778 KA relative to UGCAUGU.
For B31, the binding signal was 0.00901 KA relative to UGCAUGU.
